This is an account of results in paper PMC4336329 (PLoS ONE, 2015).

Among all 310,000 compounds or so, about 2,200 (0.71%) showed an effect of 50% or more. The effect is printed as a negative number. This is one part of the list.

In this assay the target is human ether-à-go-go-related gene (hERG) potassium channel (human, UniProt Q12809). The assay can be described thus: primary screen, population patch clamp on CHO cells stably expressing hERG.
Chain of human ether-à-go-go-related gene (hERG) potassium channel (Q12809 whole entry, looked up): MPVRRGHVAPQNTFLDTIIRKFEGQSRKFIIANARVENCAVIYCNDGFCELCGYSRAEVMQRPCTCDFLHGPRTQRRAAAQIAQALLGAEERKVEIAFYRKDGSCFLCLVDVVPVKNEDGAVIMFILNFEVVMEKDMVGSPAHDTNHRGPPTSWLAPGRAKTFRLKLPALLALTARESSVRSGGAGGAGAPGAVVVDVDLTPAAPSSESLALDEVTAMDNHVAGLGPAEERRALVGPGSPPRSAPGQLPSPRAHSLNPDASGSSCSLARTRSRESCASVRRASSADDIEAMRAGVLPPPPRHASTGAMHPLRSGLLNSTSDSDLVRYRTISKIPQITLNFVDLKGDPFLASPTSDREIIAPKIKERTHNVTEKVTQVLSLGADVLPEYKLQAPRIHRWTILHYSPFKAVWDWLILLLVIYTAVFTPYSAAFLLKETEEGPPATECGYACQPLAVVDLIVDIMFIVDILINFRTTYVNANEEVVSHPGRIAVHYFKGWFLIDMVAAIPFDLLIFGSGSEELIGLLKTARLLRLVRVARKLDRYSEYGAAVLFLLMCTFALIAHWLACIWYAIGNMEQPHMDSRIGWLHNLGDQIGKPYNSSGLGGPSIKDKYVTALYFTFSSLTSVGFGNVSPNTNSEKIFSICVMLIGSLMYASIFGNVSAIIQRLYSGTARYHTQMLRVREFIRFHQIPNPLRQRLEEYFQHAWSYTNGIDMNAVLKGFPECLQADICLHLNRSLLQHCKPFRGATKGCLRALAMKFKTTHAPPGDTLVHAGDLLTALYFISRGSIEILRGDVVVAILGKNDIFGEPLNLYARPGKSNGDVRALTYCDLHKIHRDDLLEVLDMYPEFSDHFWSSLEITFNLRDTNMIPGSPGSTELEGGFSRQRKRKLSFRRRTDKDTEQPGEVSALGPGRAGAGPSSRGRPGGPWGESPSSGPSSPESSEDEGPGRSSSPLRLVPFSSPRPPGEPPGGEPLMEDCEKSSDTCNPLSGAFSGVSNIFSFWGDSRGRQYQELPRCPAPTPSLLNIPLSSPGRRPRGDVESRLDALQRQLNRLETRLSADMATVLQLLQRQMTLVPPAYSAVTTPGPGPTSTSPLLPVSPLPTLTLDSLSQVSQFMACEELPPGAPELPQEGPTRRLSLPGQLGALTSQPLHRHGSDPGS
Turning to `COc1ccc(C2CC(c3cccc(OC)c3OC)n3nnnc3N2)cc1` (stereo not shown), the “hERG current change (%, negative = inhibition) at 1uM” value is recorded as -4.26%.

For `O=C(CN1CCOCC1)NN1CC(=O)N(c2ccc(Cl)cc2)CC1=O`, the “hERG current change (%, negative = inhibition) at 1uM” value is reported as 14.9%.

As to `CCN(CC)S(=O)(=O)c1cc(C(=O)Nc2ccccn2)ccc1C`, the “hERG current change (%, negative = inhibition) at 1uM” value amounted to 1.63%.

As for `CCC(C)c1ccccc1OCCn1ccnc1.O=C(O)C(=O)O` (stereo not shown), the “hERG current change (%, negative = inhibition) at 1uM” value was 3.68%.

For the molecule `Cc1ccc(C(=O)C(C)N(C(=O)c2ccc(Cl)cc2Cl)N2C(=O)CCCC2=O)cc1` (stereo not shown), the “hERG current change (%, negative = inhibition) at 1uM” value is given as -5.09%.

Take `Cc1ccc(NC(=O)C2(NC(=O)c3ccccn3)CCCCC2)cc1Br`: the “hERG current change (%, negative = inhibition) at 1uM” value was found to be 10.8%.

Turning to `COc1cc(NC(=O)Cn2cnc(S(=O)(=O)N3CCCCC3)c2)cc(OC)c1OC`, the “hERG current change (%, negative = inhibition) at 1uM” value came out at 10.3%.

For `CCC(Sc1nc2n[nH]c(C)c2c(=N)n1-c1ccc(C)c(Cl)c1)C(=O)N1CCOCC1` (stereo not shown), the “hERG current change (%, negative = inhibition) at 1uM” value is recorded as -0.0071%.

As to `O=C1NC(CCc2ccccc2)C(=O)N1Cc1cccc2ccccc12` (stereo not shown), the “hERG current change (%, negative = inhibition) at 1uM” value was 12.8%.

For the molecule `CCOc1ccc(NC(=O)c2cccc(NC3=NC4CS(=O)(=O)CC4S3)c2)cc1` (stereo not shown), the “hERG current change (%, negative = inhibition) at 1uM” value is reported as 20.7%.

`O=C1CN(S(=O)(=O)c2ccc(Br)cc2)c2ccccc2N1`: the “hERG current change (%, negative = inhibition) at 1uM” value is on record as -0.0372%.

Regarding `COc1ccc2c3c([nH]c2c1)C(C)N(C(C)=O)CC3` (stereo not shown), the “hERG current change (%, negative = inhibition) at 1uM” value is 11.6%.

For `COc1cc(O)ccc1C=O`, the “hERG current change (%, negative = inhibition) at 1uM” value came to 3.19%.

On to `Cc1cccc(C)c1NC(=O)N1CCC(N2CCCCC2)CC1`, for which the “hERG current change (%, negative = inhibition) at 1uM” value came out at 11.7%.

Regarding `O=C(CNC(=O)N1CC(=O)Nc2ccccc21)Nc1cccc(F)c1`, the “hERG current change (%, negative = inhibition) at 1uM” value worked out at 8.7%.

With `Cc1nc2ccc(P(=O)(O)O)cc2s1`, the “hERG current change (%, negative = inhibition) at 1uM” value is 13.2%.

With `O=C(CSc1nnc2ccccn12)Nc1ccc2c(c1)OCCO2`, the “hERG current change (%, negative = inhibition) at 1uM” value is given as 5.15%.

On to `C/C=N/NC(=O)c1cc(Br)ccc1O`, for which the “hERG current change (%, negative = inhibition) at 1uM” value was 9.07%.

As for `CN1CCN(c2ccc([N+](=O)[O-])c(-n3nc(-c4ccccc4)c4ccccc4c3=O)c2)CC1`, the “hERG current change (%, negative = inhibition) at 1uM” value is 2.21%.

For the molecule `CC(=O)N1N=C(c2c(-c3ccccc3)c3cc(C)ccc3[nH]c2=O)CC1c1ccco1` (stereo not shown), the “hERG current change (%, negative = inhibition) at 1uM” value was 7.98%.

Take `CC(C)CCNC(=O)COc1ccc2c(c1)C(=O)CC(C)(C)O2`: the “hERG current change (%, negative = inhibition) at 1uM” value amounted to 11.6%.

Consider `CCOc1ccccc1Nc1cc2n(c(=O)n1)CCc1cc(OC)c(OC)cc1-2`, for which the “hERG current change (%, negative = inhibition) at 1uM” value amounted to 13.6%.

In the case of `Nc1ccccc1-c1nnc(-c2ccccc2N)n1N`, the “hERG current change (%, negative = inhibition) at 1uM” value was 9.04%.

On to `COc1ccc(C(OCC(O)CN(C)C2CCCCC2)c2ccc(OC)cc2)cc1` (stereo not shown), for which the “hERG current change (%, negative = inhibition) at 1uM” value is reported as -29.3%.

Take `NS(=O)(=O)c1ccc(N=Cc2c(O)n(-c3nccs3)c(=O)c3ccccc23)cc1`: the “hERG current change (%, negative = inhibition) at 1uM” value is on record as 12.2%.
